# Measured values reported in PubChem BioAssay AID588591 (National Center for Advancing Translational Sciences (NCATS), 2011).
# Values joined by “and” are separate entries in the source; they are usually repeats but may differ in a detail not shown here. Identical values can stand only once. Among all 390,000 compounds or so, about 4,700 (1.2%) were called active. About 4% were inconclusive and are not listed. Calls come from the whole dose curve; as a rule, active = well fitted inhibition curve with a large enough effect; inconclusive = small, poorly fitted or top-dose-only effect, or another doubt; inactive = no such curve, though single readings can be large or run the other way. The entries are a selection whose mix differs from that of the whole data set. Some compounds were tested as several samples or in several runs, with calls that do not always agree.
# Biological target: DNA polymerase eta (Homo sapiens) (UniProt Q9Y253)
# Assay: qHTS for Inhibitors of Polymerase Eta
# Conditions: recombinant Pol eta, fluorescent DNA replication assay; series mostly up to 114 µM; activity change, negative = inhibition: at the top concentration
# Source text: The Y-family of DNA polymerases, such as Pol eta, are specifically involved in DNA repair. Pol eta copies undamaged DNA with a lower fidelity than other DNA-directed polymerases. However, it accurately replicates UV-damaged DNA; when thymine dimers are present, this polymerase inserts the complementary nucleotides in the newly synthesized DNA, thereby bypassing the lesion and suppressing the mutagenic effect of UV-induced DNA damage. […] Thus, while pol eta's (and most likely iota's) normal function is to protect humans against the deleterious consequences of DNA damage, under certain conditions they can have deleterious effects on human health. As a consequence, we propose to utilize a high throughput replication assay to identify small molecule inhibitors of pol eta. In a collaboration between the National Institute of Child Health & Human Development (NICHD) and NIH Chemical Genomics Center, a high-throughput, fluorescent screen was developed to screen the NIH Molecular Libraries Small Molecule Repository (MLSMR). This screen is used to identify inhibitors of pol eta. NIH Chemical Genomics Center [NCGC] NIH Molecular Libraries Probe Centers Network [MLPCN] MLPCN Grant: MH090825 Assay Submitter (PI): Roger Woodgate, NICHD)
# Three microliters of reagents (buffer in column 3 and 4 as negative control and 10 nM Pol eta in columns 1, 2, and 5-48) were dispensed into a 1,536-well black solid-bottomed plate. Compounds (23 nL) were transferred via Kalypsys pin tool equipped with 1536-pin array. The plates were then incubated for 15 min at room temperature, and 1 µL substrate (50 nM final concentration) was added to start the reaction and kinetically read twice at 0 min and 10 min on the Viewlux reader
# % is set by controls: 0 for no effect and ±100 for the full control effect; potency is the fitted concentration of half-maximal effect.
# Sequence of UniProt Q9Y253 (Q9Y253 whole entry, looked up): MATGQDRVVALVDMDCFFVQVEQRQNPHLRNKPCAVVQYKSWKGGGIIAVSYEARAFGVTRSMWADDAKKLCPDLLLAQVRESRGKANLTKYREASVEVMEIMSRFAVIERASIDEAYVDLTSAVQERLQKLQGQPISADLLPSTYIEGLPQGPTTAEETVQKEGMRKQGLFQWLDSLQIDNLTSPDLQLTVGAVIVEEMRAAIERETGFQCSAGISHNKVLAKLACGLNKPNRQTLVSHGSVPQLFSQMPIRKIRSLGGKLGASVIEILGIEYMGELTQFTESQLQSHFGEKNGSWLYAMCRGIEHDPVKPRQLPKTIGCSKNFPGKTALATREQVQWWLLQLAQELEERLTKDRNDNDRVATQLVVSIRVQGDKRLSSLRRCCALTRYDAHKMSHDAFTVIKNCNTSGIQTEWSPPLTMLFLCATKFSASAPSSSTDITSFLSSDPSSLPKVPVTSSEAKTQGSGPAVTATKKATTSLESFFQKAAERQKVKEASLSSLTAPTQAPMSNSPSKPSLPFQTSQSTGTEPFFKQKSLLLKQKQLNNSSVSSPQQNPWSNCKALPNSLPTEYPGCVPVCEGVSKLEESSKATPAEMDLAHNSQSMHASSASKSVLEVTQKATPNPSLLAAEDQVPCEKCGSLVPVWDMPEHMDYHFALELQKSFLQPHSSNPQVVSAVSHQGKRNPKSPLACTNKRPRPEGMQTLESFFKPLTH
Compound,"activity change, negative = inhibition",Potency
CCN(c1ccc(OC)cc1)S(=O)(=O)c1nnc(NC(=O)COc2ccc(F)cc2)s1,inactive: -9.27%,
O=C(Nc1ccccc1)Nc1scc2c1c(=O)oc1ccccc12,inactive: 19.3%,
N#C/C(=C\c1ccc(O)c(O)c1)C(=O)c1ccc(O)c(O)c1,inactive: -99.6%,
CC(=O)c1ccc(OCCOc2ccc(C#N)cc2)cc1,inactive: 31.7%,
CC(=O)NS(=O)(=O)c1ccc(NC(=O)c2cc3c(=O)n4ccccc4nc3s2)cc1,,active: 39.8 µM
O=C(Cn1ccn(-c2ccc(F)c(F)c2)c(=O)c1=O)NCCc1ccccc1,inactive: -1.72%,
CCOC(=O)c1cc(=O)cc(C(=O)OCC)o1,inactive: -9.45%,
Nc1ccc([N+](=O)[O-])cc1C(=O)NNC(=O)c1ccco1,inactive: 21.2%,
O=C(CCCN1C(=O)/C(=C/c2ccccc2Cl)SC1=S)NNC(=O)c1cccnc1,inactive: 36.5%,
CCC(=O)Oc1ccc2c(c1)OC1(OC(C)=O)OC(C)CC1=C2C (configuration not stated),inactive: 30.8%,
CO[C@@]1(NC(=O)CSCC#N)C(=O)N2C(C(=O)O)=C(CSc3nnnn3C)CS[C@@H]21,inactive: -1.97% [at 57.1 µM],
COc1cc2ccc(=O)oc2c(O[C@@H]2O[C@H](CO)[C@@H](O)[C@H](O)[C@H]2O)c1O,inactive: -22.6%,
CCO[C@@H]1OC(C(=O)N2CCCCCCC2)=C[C@H](C2CCCCC2)[C@H]1CCCO,inactive: -17.5%,
COc1cc([N+](=O)[O-])ccc1NC(=O)Nc1cnccn1,,active: 79.4 µM
Oc1ccc(C[C@@H]2CNCCN2CCc2cc(C(F)(F)F)cc(C(F)(F)F)c2)cc1,inactive: -16.2%,
Cc1ncc(CO)c2c1Oc1nc(-c3ccccc3)nc(SCC(=O)N3CCCCC3)c1C2,inactive: -7.21%,
CCc1ccc(-c2nc(CS(=O)CC(=O)NCc3ccco3)c(C)o2)cc1 (configuration not stated),,active: 89.1 µM
Oc1ccc(NCc2ccccc2OCc2ccccc2)cc1,inactive: -23.2%,
CCCCCC(=O)N1CCN(CCN=CC2=C(O)CC(c3cccs3)CC2=O)CC1 (configuration not stated),inactive: 4.9%,
CC(C)c1ccc2c(c1)c(SC(C)(C)C)c(CC(C)(C)C(=O)O)n2Cc1ccc(Cl)cc1,,active: 35.5 µM and active: 25.1 µM
Cc1ccc(N2CCN(C(=O)c3nn(C)c4c3CS(=O)(=O)c3ccccc3-4)CC2C)cc1 (configuration not stated),inactive: -20.5%,
CCN1CCN(c2cc(C)c3cc(NC(=O)c4cc(OC)cc(OC)c4)ccc3n2)CC1,inactive: -19.1%,
Cc1cccc(N2CCN(S(=O)(=O)c3c(C)nc4scc(C)n4c3=O)CC2C)c1 (configuration not stated),inactive: -7.56%,
C[C@H](NC(=O)c1ncn2c1c(=O)[nH]c1ccc(Br)cc12)c1ccccc1,inactive: -17.6%,

Compound,"activity change, negative = inhibition",Potency
C=CCn1c(=O)c2ccccc2n2c(SCC(=O)/C(C#N)=C(\C)N)nnc12,inactive: -10.6%,
CC(C)(C)c1ccc(C(O)CCCN2CCC(C(O)(c3ccccc3)c3ccccc3)CC2)cc1 (configuration not stated),inactive: -4.65%,
CC1CCC(C(C)C)C(OC(=O)C[n+]2cc(-c3ccc(Cl)cc3)n3c2CCCCC3)C1 (configuration not stated),inactive: -20.1%,
Cc1cc(C)n2c(SC/C(O)=C(\C#N)c3nc4ccccc4[nH]3)nnc2n1,,active: 3.16 µM
O=Cc1c(-[n+]2ccccc2)nc([O-])n1-c1ccccc1,inactive: -8.14%,
CC1=C(C/C=C(\C)CCCC(C)CCCC(C)CCCC(C)C)C(=O)c2ccccc2C1=O (configuration not stated),inactive: -12.8%,
CCOc1ccc(CNC(=O)CCCOc2cc(=O)n(C)c3ccccc23)cc1,inactive: -1.22%,
CN(C)CCCN1c2ccccc2Sc2ccc(Cl)cc21,,inactive
O=C(N/N=C\c1ccc(Br)o1)C1COc2ccccc2O1 (configuration not stated),,active: 44.7 µM
NS(=O)(=O)c1ccc(NC(=O)/C=C/c2ccco2)cc1,,active: 20 µM
O=C(COC(=O)c1ccccc1)Nc1ncc([N+](=O)[O-])s1,,active: 0.794 µM
Cc1c(Cl)cnc(NC(=O)COC(=O)C(NC(=O)c2ccco2)C(C)C)c1Cl (configuration not stated),,active: 89.1 µM
COc1cc(/C=C(\C#N)c2nc3ccccc3[nH]2)ccc1OCc1ccc(F)cc1,,active: 79.4 µM
CCN(CC)c1ccc(C=N/C(C#N)=C(\N)C#N)cc1,inactive: 21%,
NNC(=O)c1cc(NS(=O)(=O)c2cccs2)cc(NS(=O)(=O)c2cccs2)c1,,active: 20 µM
CN(C)c1cccc2c1c(NC(=O)c1ccc(F)cc1)nn2C,inactive: 34.7%,
CC1(C)Cc2nc3sc4c(SCC(=O)NCc5ccco5)ncnc4c3cc2CO1,,active: 22.4 µM
COc1ccc([C@@H]2CC(=O)c3c(O)cc(O[C@@H]4OC(CO[C@@H]5OC(C)[C@H](O)[C@H](O)C5O)[C@@H](O)[C@@H](O)C4O)cc3O2)cc1O (some centres not stated),inactive: -12.1%,
CC(=O)Oc1ccc2c(c1)Oc1cc(OC(C)=O)ccc1C21OC(=O)c2ccccc21,inactive: 256%,
Cc1cc(C)[n+](-c2ccc(Oc3ccccc3)c(S(=O)(=O)[O-])c2)[nH]1,inactive: -19.7%,
O=C(CCCN1C(=O)S/C(=C\C=C\c2ccccc2)C1=O)Nc1ccc(C(=O)O)cc1,inactive: -21.6%,
CCOC(=O)c1ccc(NC(=O)c2ncn3c2C(=O)NC[C@H]3C)cc1,inactive: -1.85%,
COc1cc(/C=C/C(=O)OCC(=O)Nc2ccc(S(N)(=O)=O)cc2)ccc1O,,active: 50.1 µM
